Results taken from PubChem BioAssay AID624296 (National Center for Advancing Translational Sciences (NCATS), 2012).
Screen size: about 350,000 compounds; about 9,900 (2.8%) were called active. Inconclusive results, whose numbers are uncertain, are shown with a selection of clear calls. Calls follow the shape of the dose curve; as a rule, active = well fitted activation curve with a large enough effect; inconclusive = small, poorly fitted or top-dose-only effect; inactive = no such curve, though single readings can be large or run the other way. No potency is given beside an inconclusive call; the fits are too rough.

Assay: A quantitative high throughput screen for small molecules that induce DNA re-replication in MCF 10a normal breast cells. Also: nearly all actives have a fitted effect of over 50% in size.
Conditions: MCF 10A DNA re-replication, Hoechst nuclear intensity, 48 h; series mostly up to 46.1 µM
Potency is read from the fitted curve at half-maximal effect; tags tell the direction and shape of the fitted curve.

| Compound | Potency |
| --- | --- |
| CCCc1cc(=O)n2[nH]cc(-c3ccc(Cl)cc3)c2n1 | inconclusive [activator, partial curve] |
| COc1ccc(Cc2nnc(NC(=O)c3ccccc3)s2)cc1OC | inactive |
| CCOc1cc(/C=C2\C(=N)N3N=CSC3=NC2=O)ccc1OS(=O)(=O)c1ccccc1 | inactive |
| CC(=O)c1ccc(-n2c(=O)[nH]c(=O)c3c(N)c(C(=O)c4ccc(Cl)cc4)sc32)cc1 | inconclusive [activator, single point] |
| COc1ccc2ccccc2c1/C=N/NC(=O)c1cccc(C)c1 | inconclusive [activator, single point] |
| COc1cc(OC)cc(C(=O)Oc2ccc(/C=N/Nc3nc4ccccc4s3)cc2OC)c1 | inconclusive [activator, single point] |
| CCCn1c(C2CCCN2c2nc(-c3ccc(C)cc3)cs2)nc2ccccc21 (configuration not stated) | inconclusive [activator, single point] |
| CC(=O)c1ccc(N2CCN(C(=O)c3cccs3)C(C)C2)c(F)c1 (configuration not stated) | inactive |
| O=C(CN1C(=O)NC2NC(=O)NC21)N/N=C/c1ccccc1O (configuration not stated) | inactive |
| CC(OC(=O)c1cc(=O)[nH]c2ccccc12)C(=O)NCc1ccccc1 (configuration not stated) | inactive |
| Cc1ccc(OCCC(=O)OCC(=O)Nc2ccc(Cl)cn2)cc1 | inactive |
| CC(C(=O)Nc1ccccc1-c1ccccc1)N(C)Cc1nc2ccccc2c(=O)[nH]1 (configuration not stated) | inconclusive [activator, single point] |
| CCOc1ccc2oc(C(=O)NCC(C)(C)CN(C)C)c(C)c2c1 | inconclusive [activator, partial curve, poor fit] |
| O=C(CCCOc1cccc(Br)c1)NCCOc1ccccc1 | inactive |
| O=C(N/N=C(\Cc1ncc[nH]1)c1ccccc1)c1cccnc1 | inconclusive [activator, full curve, poor fit] |
| CC1(C)OC2OC3C(CNCCO)OC(c4ccccc4)OC3C2O1 (configuration not stated) | inactive |
| Cc1cccn2c(=O)c3cc(C(=O)NC4CCCC4)c(=N)n(CC4CCCO4)c3nc12 (configuration not stated) | active: 9.2 µM |
| Nc1c(C(=O)Nc2nccs2)sc2nc(-c3cccs3)cc(C(F)(F)F)c12 | inconclusive [activator, single point] |
| CCOC(=O)C1=C(CC)Nc2ccccc2N/C1=N\S(=O)(=O)c1ccc2ccccc2c1 | inconclusive [activator, single point] |
| COc1ccc(CC(=O)Nc2ccc(N3CCCC3)c(C)c2)cc1 | inactive |
| COc1ccc(C(=O)Nc2ccc(-c3ccc(NC(=O)c4ccc(OC)cc4)c(OC)c3)cc2OC)cc1 | active: 2.31 µM |
| CN(CCc1ccccc1)C(=O)c1ccc(NC(=O)Cc2cccc(NC(=O)C3CCN(C(=O)C4CC4)CC3)c2)cc1 | inconclusive [activator, full curve, poor fit] |
| O=C(NCc1ccccn1)Nc1ccccc1Cl | inconclusive [activator, single point] |
| COc1ccc2c(c1)CCc1sc(NC(=O)c3ccc(C)cc3)nc1-2 | inactive |

| Compound | Potency |
| --- | --- |
| COc1cccc(OC)c1C(=O)OCC(=O)N1CCC(Cc2ccccc2)CC1 | inactive |
| O=S(=O)(NCc1ccccc1F)c1cccc(S(=O)(=O)N2CCOCC2)c1 | inactive |
| CN(C)C=NC(=O)c1ccc(N2CCN(c3ncc(C(F)(F)F)cc3Cl)CC2)cc1 | active: 14.6 µM |
| COc1ccccc1[C@H]1C(c2cccc(Cl)c2)=NN(c2ccccc2)[C@@H]1CO | inconclusive [activator, partial curve, poor fit] |
| COc1ccc(CCC(C(O)C(F)(F)F)S(=O)c2ccccc2)cc1 (configuration not stated) | inconclusive [activator, single point] |
| Cc1ccc(-c2csc3ncnc(-n4nnc5ccccc54)c23)cc1C | inconclusive [activator, partial curve, poor fit] |
| Cc1cc(NC(=O)CSc2nc3c(sc4ccccc43)c(=O)n2CCc2ccccc2)n[nH]1 | inactive |
| CN(CC(=O)Nc1cccc(F)c1)C(=O)c1ccc(C2SCCS2)cc1 | inactive |
| CCN(CC)S(=O)(=O)c1ccc2c(c1)N(CC(=O)Nc1cccnc1Cl)C(=O)CO2 | inconclusive [activator, single point] |
| C/C=N\NC(=O)CNC(=O)CNC(=O)c1ccccc1 | inconclusive [activator, partial curve] |
| CCCCNC(=O)Cc1c(OC)ccc2cc(Br)ccc12 | inconclusive [activator, single point] |
| O=C(Nc1nc2cc3c(cc2s1)OCCO3)c1ccc([N+](=O)[O-])o1 | active: 5.17 µM |
| COc1ccc(-c2cn3c(C)c(C(=O)N4CCc5ccccc5C4)sc3n2)cc1 | inconclusive [activator, single point] |
| CC[C@H](C)[C@H]1O[C@]2(CC[C@@H]1C)C[C@@H]1C[C@@H](C/C=C(\C)[C@H](O[C@@H]3C[C@H](OC)[C@H](O[C@@H]4C[C@H](OC)[C@@H](O)[C@H](C)O4)[C@H](C)O3)[C@@H](C)/C=C/C=C3\CO[C@@H]4[C@H](O)C(C)=C[C@@H](C(=O)O1)[C@]34O)O2 | inconclusive [activator, full curve] |
| O=S(=O)(NCCOc1cccc2cccnc12)c1ccc(F)cc1 | active: 10.3 µM |
| Cc1cc(C(=O)COc2cc(F)ccc2[N+](=O)[O-])c(C)n1C1CC1 | inconclusive [activator, single point] |
| Cn1cnc([N+](=O)[O-])c1S(=O)(=O)Oc1ccc(Cl)cc1 | active: 6.51 µM |
| CCCCCCCCC/C(=N\O)c1ccccn1 | active: 14.6 µM |
| CCOC(=O)C1=C(N)c2ccccc2CC1C(C)C (configuration not stated) | inconclusive [activator, single point] |
| O=C(N/N=C/c1ccccc1Cl)c1n[nH]c2c1CCCC2 | inactive |
| Fc1ccc(N=C2NN=C(c3cc(F)ccc3F)CS2)cc1 | inconclusive [activator, single point] |
| CCOc1ccccc1C(=O)NC(C(=O)N(C)Cc1ccc2c(c1)OCO2)C(C)C (configuration not stated) | inactive |
| O=C(CCCOc1ccccc1)NCCc1nc2ccccc2[nH]1 | inactive |
| Cc1ccc(OCC(=O)NC2CCCC(C)C2C)c([N+](=O)[O-])n1 (configuration not stated) | inactive |

| Compound | Potency |
| --- | --- |
| CC(=O)N1c2ccc(S(=O)(=O)N3CCC(C(=O)N4CCCCC4)CC3)cc2CC1C (configuration not stated) | inactive |
| O=C(Oc1cccc2cccnc12)c1cccc([N+](=O)[O-])c1 | inconclusive [activator, partial curve, poor fit] |
| COC(=O)N/N=C/c1ccc(-c2ccc(Cl)cc2Cl)o1 | inactive |
| CCN(Cc1ccccc1)C(c1cc2cc(C)ccc2[nH]c1=O)c1nnnn1CCOC (configuration not stated) | inactive |
| CCCN1C/C(=C/c2ccc3c(c2)OCO3)C(=O)/C(=C/c2ccc3c(c2)OCO3)C1 | inconclusive [activator, full curve, poor fit] |
| Cc1cc(C)c2c(c1)cc(C)c1nnc(SCC(=O)N3CCCc4ccccc43)n12 | inactive |
| Oc1ccc2ccccc2c1C=Nc1ccccc1-c1nc2ccccc2[nH]1 | inconclusive [activator, single point] |
| O=C(O)Cc1cn(-c2ccccc2)nc1-c1ccccc1 | inactive |
| Cc1nc2ccccc2nc1OCC(=O)NCc1ccc2c(c1)OCO2 | inconclusive [activator, partial curve, poor fit] |
| O=C(CSC1=NS(=O)(=O)c2cc(F)ccc2N1)NCc1ccccc1Cl | inactive |
| Cc1c(C(=O)N2CCCCC2)oc2ccc(S(=O)(=O)N3CC(C)CC(C)C3)cc12 (configuration not stated) | inconclusive [activator, single point] |
| O=C(CCc1ccccc1O)N/N=C/c1ccc(Sc2cccc3cccnc23)o1 | inactive |
| CC(=O)Nc1ccc(NC(=O)C(C)OC(=O)c2oc3ccccc3c2C)cc1 (configuration not stated) | inconclusive [activator, single point] |
| O=C(O)c1ccc(Oc2ccc([N+](=O)[O-])cc2)c([N+](=O)[O-])c1 | inactive |
| Cc1c(C(=O)Nc2c(F)cc(F)cc2Br)sc2ncn(CC(=O)N3CCCC3)c(=O)c12 | inconclusive [activator, partial curve, poor fit] |
| O=C(Nc1ccc2c(c1)CCC2)c1cnn2c1NC(c1ccco1)CC2C(F)(F)F (configuration not stated) | inconclusive [activator, single point] |
| N#C/C(=C\c1c[nH]c2ccc(Br)cc12)c1ccccn1 | inconclusive [activator, single point] |
| NS(=O)(=O)OCC1CCCCC1 | inconclusive [activator, single point] |
| CC(=O)NC(c1cccc([N+](=O)[O-])c1)c1ccc2cccnc2c1O (configuration not stated) | active: 14.6 µM |
| CC(C)NC(=S)N1CCC(Cc2ccccc2)CC1 | inconclusive [activator, single point] |
| CC[C@H](C)Cc1cn([C@@H](CCCCNC(=O)OC(C)(C)C)C(=O)NCCCCCCCCCCC(=O)N2CCN(C(=O)OC(C)(C)C)CC2)nn1 | inactive |
| Cc1ccc2[nH]c(=O)c(CN(CC3CCCO3)C(=S)NCc3ccco3)cc2c1 (configuration not stated) | inactive |
| Cn1cccc1/C=N/n1c(-c2ccccc2)n[nH]c1=S | inactive |
| COc1ccc(-c2nc(C#N)c(NC(C)c3ccccc3)o2)cc1OC (configuration not stated) | inconclusive [activator, single point] |
